From PubChem BioAssay AID1508623 (National Center for Advancing Translational Sciences (NCATS), 2021)
The campaign covered roughly 48,000 compounds. About 450 (0.94%) were called active. Not shown: some 19% with an inconclusive outcome. Calls come from the whole dose curve; as a rule, active = well fitted inhibition curve with a large enough effect; inconclusive = small, poorly fitted or top-dose-only effect; inactive = no such curve, though single readings can be large or run the other way. This is one part of the list.

Experiment: Primary qHTS for Identification of Small Molecule Inhibitors of Huntingtin Promoter Activity; note: nearly all actives have a fitted effect of over 50% in size
Conditions: HEK293 HTT promoter firefly luciferase reporter (activity 0% = vehicle and -100% = no light), 24 h; series mostly up to 57.5 µM; activity change, negative = inhibition: at the top concentration
How it was run: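 Quantitative HTS used concentration series of up to 57.5 uM final on HEK293 luciferase reporter cells, 24 h at 37 degrees C. Readout was Dual-Glo firefly luminescence.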
Potency is the fitted concentration of half-maximal effect.

Activity change, negative = inhibition, inactive:
COc1ccc2c(CNCC(C)c3ccccc3)c(C(=O)O)n(Cc3ccc(F)cc3Cl)c2c1 (stereo unspecified) -6.43%
COc1ccc(/C=C(\C#N)c2nc(-c3cc(Cl)ccc3OC)cs2)cc1 -7.38%
COc1cc(OC)c(NC(=O)c2c(C)oc3ncn(C)c(=O)c23)cc1Cl -6.89%
CCOc1ccc(NC(=O)c2ccc(NC(=O)CCS(=O)(=O)c3cccs3)cc2)cc1 -24.5%
Cc1ccc(C2CC(=O)N(Cc3ccccc3F)c3c2c(C)nn3-c2nc(C)cc(C)n2)cc1 (stereo unspecified) -22.3%
C[C@]12CCC(=O)C=C1CC[C@H]1[C@@H]3CC[C@](O)(C(=O)CO)[C@@]3(C)C[C@H](O)[C@@]12F 8.72%
CCn1cc(C(=O)N2CCN(c3cccc(Cl)c3)CC2)c(=O)c2cc(S(=O)(=O)N3CCOCC3)ccc21 -0.416%
Cc1ccc(Cc2nc3ccccc3nc2SCC(=O)N2CCc3ccccc32)cc1 -7.24%
CN(C)CCNC(=O)C1CCN(c2nc3ccccc3[nH]2)CC1 2.82%
Cc1c(NC(=O)c2cc([N+](=O)[O-])ccc2N2CCOCC2)cccc1-c1nc2ccccc2o1 -17.2%
Cc1ccc(NC(=O)c2nc(S(C)(=O)=O)ncc2N(Cc2ccccc2)Cc2ccco2)c(C)c1 -24.3%
CNC[C@H](O)c1cccc(O)c1
COc1ccc(NC(=O)c2nnn(Cc3ccccc3C)c2N)c(OC)c1 -28%
Cc1ccc(C(=O)Nc2c(-c3ccccc3)nc3ccccn23)cc1C -7.59%
O=C(Nc1cccc(C(=O)OCc2cc(=O)n3nc(C4CC4)sc3n2)c1)c1ccc(F)cc1 4.35%
CC(=O)c1ccc(S(=O)(=O)N2CCC(Oc3ccc(-n4cnnn4)cc3)CC2)cc1 8.32%
COc1ccc(S(=O)(=O)Nc2ccc(O)c(Sc3nc4ccccc4s3)c2)cc1 -6.87%
CCc1ccc(NC(=O)CN2C(=O)C(=O)c3ccccc32)cc1 11.6%
O=C(Nc1cccc(Cl)c1)N1Cc2ccccc2Oc2ncccc21 -10.3%
CCCC(=O)NC1CC(=O)N(c2ccc3c(c2)OCCO3)C1 (stereo unspecified) 1.14%
O=C(O)[C@H]1O[C@H](Oc2cc3oc(-c4ccccc4)cc(=O)c3c(O)c2O)[C@H](O)[C@@H](O)[C@H]1O 16.7%
COc1ccccc1C1C(C(N)=O)=C(C)Nc2nc(SCc3ccccc3F)nn21 (stereo unspecified) -4.89%
Cc1c(C(=O)N(C)C)sc2c1c(=O)n(-c1ccc(Cl)c(Cl)c1)c(=O)n2Cc1ccc(F)cc1 2.62%
OCc1ccc(-c2ccc(-c3ccc(CO)s3)o2)s1 -1.28%
COc1ccc(NC(=O)CCS(=O)(=O)c2cc(Br)cc3c2N(C(C)=O)CC3)c(OC)c1 -7.8%
O=c1c(-c2ccc(O)cc2)coc2cc(O)cc(O)c12
CCOC(=O)Nc1ccc2c(c1)N(C(=O)CCN1CCOCC1)c1ccccc1S2 -6.73%
CCn1cc(C(=O)N(C)Cc2ccccc2)c(=O)c2cc(S(=O)(=O)N3CCCCC3)ccc21 67.1% [at 11.5 µM]
Cc1cccc(N2CCN(C(=O)Cn3nc(C)c4sc5ccccc5c4c3=O)CC2C)c1 (stereo unspecified) -11.8%
COC(=O)C1=C(c2ccccc2)c2ccccc2S(=O)(=O)N1CC(=O)Nc1cc(C)ccc1C -19.6%
Cc1ccc(CN2C(=O)C3(SCC(=O)N3c3ccc(C)c(C)c3)c3ccccc32)cc1 (stereo unspecified) -34.7%
CCOC(=O)c1cccc(NC(=O)CCc2c(C)nc3c4cccnc4nn3c2C)c1 -11.5%
CCOC(=O)Cn1nc(N2CCN(c3ccc(F)cc3)CC2)ccc1=O -12.1%
Cc1cccc(N2CCN(c3c(CN4CCCC4)c(=O)oc4ccccc34)CC2)c1C -9.25%
Cc1c(C(=O)N2CCOCC2)oc2c1-c1nn(CC(=O)NCc3ccccc3)cc1CC2 -25.3%
CSc1ccc(Nc2nn(-c3ccc(OC(F)(F)F)cc3)nc2C(C)=O)cc1 -5.57%
Cn1c(=O)n(C)c2cc(CNCc3ccc(C(=O)O)cc3)ccc21 -13.6%
C[C@H](NC(=O)Cc1cc(F)cc(F)c1)C(=O)N[C@@H]1C(=O)N(C)c2ccccc2-c2ccccc21 -1.35%
CCOCCn1ccc2c(OCC(=O)Nc3cc(C(F)(F)F)ccc3Cl)cccc2c1=O 0%
Cc1ccc2c(c1)N(CC(=O)NCc1cccc(Cl)c1)C(=O)c1cccnc1O2 -15.7%
COc1ccccc1Cn1c(CNS(=O)(=O)c2c(C)cc(C)cc2C)nc2cccnc21 -10.9%
Cc1ccc(-n2nc(C)c3c(C)c(CCC(=O)NCc4cccc(Cl)c4)c(C)nc32)cc1C -22.4%
CCOCCCn1c(=N)c(S(=O)(=O)c2ccccc2)cc2c(=O)n3cc(C)ccc3nc21 4.08%
CCn1cc(S(=O)(=O)c2ccccc2)c(=O)c2cc(F)c(N3CCCCCC3)cc21 -15.8%
O=C(CSc1c2c(nc3ccc(Cl)cc13)CCCC2)N1CCCCC1 -14%
CCOc1ccc(CCNC(=O)c2cc3cc4ccc(OC)cc4nc3s2)cc1OCC -2.69%
Cc1ccccc1OCC(=O)Nc1ccc(S(=O)(=O)Nc2ncccn2)cc1 -7.59%
Nc1c2c(nc3c1CCC3)CCCC2 -3.87%
COCCNC(=O)C(=O)Nc1ccc2nc3n(c(=O)c2c1)CCCCC3 2.84%
C=Cc1ccc(Cn2c(C(=O)O)c(CNCc3cc(OC)ccc3OC)c3ccc(C)cc32)cc1 -5.19%
COc1ccc(CCNC(=O)C(C)n2nc(C)c3sc4ccccc4c3c2=O)cc1OC (stereo unspecified) -14.1%
CCOc1ccc(C2C(C(=O)Nc3ccc(C)cc3C)=C(C)Nc3c(C(=O)Nc4ccc(C)cc4)cnn32)cc1OC (stereo unspecified) 2.63%
COc1ccc(-c2nc(C)c(CCNC(=O)c3cccc(C)c3)s2)cc1OC 22%
COc1ccc(C2NC(=O)N(C)C3=C2C(=O)N(c2ccccc2)C3)cc1 (stereo unspecified) -18%
COc1ccc(-c2nc3c(C#N)c[nH]n3c2NC2CCCCC2)cc1 18.8%
COC(=O)c1cc2sccc2n1Cc1ccc(F)cc1 -25.8%
CCCCC(=O)Nc1nnc(S(=O)(=O)N2CCCCCC2)s1 3.76%
Cc1ccc(C)c(N2CCN(C(=O)CN3C(=O)COc4ccc(S(=O)(=O)N5CCOCC5)cc43)CC2)c1 -12.2%
CCOc1ccc(NC(=O)c2cccc(N3CCCS3(=O)=O)c2)cc1 7.26%
Cc1cccc(-c2cc(NC(=O)c3ccccc3C)n(-c3ccccc3)n2)c1 10.1%
CCC(=O)N1c2ccccc2CC1C(=O)NCCCN1CCN(c2ccccc2)CC1 (stereo unspecified) -10.4%
Cc1ccc(C)c(NC(=O)c2cc(S(=O)(=O)N3CCc4ccccc4C3)ccc2F)c1 -4.17%
COc1ccccc1CNC(=O)c1cc2sccc2n1Cc1ccc(F)cc1 -23.5%
COc1ccc(Br)cc1CNC(=O)CCCn1c(=O)c2cccn2c2cccnc21 -9.01%
CCCS(=O)(=O)c1c(S(=O)(=O)CCC)c2cc(C(C)(C)C)ccn2c1C(=O)c1ccc(OC)c(OC)c1 -22.4%
COc1ccc(-c2noc(-c3ccccc3OCC(=O)Nc3ccc(C(C)=O)cc3)n2)cc1 10%
O=C(Cn1ncc2c3ccccc3n(Cc3ccccc3)c2c1=O)N1CCCCCC1 4.87%
CN=C(NC#N)NCCSCc1nc[nH]c1C 5.13%
CCc1cccc(NC(=O)Cn2c(C(=O)OC)cc3occc32)c1 -17.8%
COc1ccccc1NC(=O)Cn1c(=O)n(-c2ccccc2Cl)c(=O)c2sc3ccccc3c21 -16.4%
CSc1cccc(Nc2ncc3cc(-c4c(Cl)cccc4Cl)c(=O)n(C)c3n2)c1 -0.113%
Cc1ccc(CNc2ccc(-c3nc(-c4cccnc4)no3)cc2[N+](=O)[O-])cc1 -3.32%
CCN(CC)S(=O)(=O)c1ccc2c(c1)N(CC(=O)Nc1ccc(F)cc1F)C(=O)C1CCCN21 (stereo unspecified) -17.2%
CCOC(=O)c1[nH]c2ccccc2c1NC(=O)c1cc(Cl)ccc1Cl -23.5%
COc1ccc(CNC(=O)CCCCCn2c(=O)[nH]c3ccccc3c2=O)cc1 -11.3%
CCOC(=O)c1[nH]c2ccccc2c1NC(=O)c1ccc(OC)c(OC)c1 -13.7%
COc1cc(NC(=O)Cn2c(C)cc(C)c(C#N)c2=O)cc(OC)c1 -5.25%
CCn1cc(C(=O)NCCc2ccc(Cl)cc2)c(=O)c2cc(S(=O)(=O)N3CCOCC3)ccc21 -13.2%
Oc1cccc(-c2nc3ncccn3c2Nc2cccc(C(F)(F)F)c2)c1 -26.4%
NCCO 7.87% [at 116 µM]
COc1ccccc1Cc1nc2ccccc2nc1SCC(=O)NCc1ccc(F)cc1 3.9%
COc1ccccc1Nc1nc2c(S(=O)(=O)c3ccc(C(C)C)cc3)nnn2c2ccsc12 -3.11%
Cc1ccc2c(=O)cc(C(=O)Nc3ccc(S(=O)(=O)N4CCCCC4)cc3)oc2c1C -22.6%
Cc1ccc(NC(=O)CCc2nc3cccnc3n2-c2ccccc2)cc1 -31.4%
Cc1coc2cc3oc(=O)c(CC(=O)NCCc4ccccc4F)c(C)c3cc12 2.28%
O=C(Cn1c(=O)n(Cc2ccc(C(=O)NCc3ccccc3Cl)cc2)c(=O)c2ccccc21)Nc1ccc(F)cc1 -7.55%
CC(C)(C)C(=O)Nc1ccc(Cl)c(-c2nc3ccccc3[nH]2)c1 -9.85%
Cc1c(-c2ccccc2)n(-c2ccc(Cl)cc2)c2nc3c(c(=O)n(C)c(=O)n3C)n12 -6.35%
CCCCC(=O)N1c2ccccc2C(C)(c2ccccc2)CC1(C)C (stereo unspecified) -9.24%
Cc1cccc(CNC(=O)c2cnc3c(-c4cccc(C)c4)c(C)nn3c2C)c1 -20.1%
COc1ccc(OC)c(CCNc2ncnc3onc(-c4ccc(Cl)cc4)c23)c1 -26.4%
CCc1ccc(S(=O)(=O)NCCc2cn3ccsc3n2)cc1 -11.5%
Cn1c(=O)c2cc(S(=O)(=O)NC(Cc3ccccc3)C(=O)Nc3ccc(F)cc3)ccc2n(C)c1=O (stereo unspecified) -13.2%
CCOc1cc2ncc(C#N)c(Nc3ccc(F)c(Cl)c3)c2cc1NC(=O)C=CCN(C)C -5.92%
O=C(c1ccccc1Cl)n1nc(-c2ccco2)nc1NCc1cccs1 7.47%

Potency, active:
Cc1nn(-c2ccc(F)cc2)c(-n2cccc2)c1C(=O)N1CCN(c2ccc(F)cc2)CC1 28.2 µM
